Measurements taken from the supplement of paper PMC11417369.
± gives the standard deviation of the averaged measurements. Some of the results follow.

The sequences below were run on PfAP2-G AP2 domain (GST-tagged) (assay: gcPBM binding intensity (ln(normalized median fluorescence intensity)); higher = stronger DNA binding).
Outline: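 Each value is the highest Masliner-normalised natural-log median intensity across replicate spots of either orientation of a probe. The probes were primer-extended double-stranded 36-bp intergenic genomic sequences on an Agilent 4 × 180k array, alongside negative controls, exposed for 1 h to GST-tagged P. falciparum DNA-binding domains expressed in E. coli. Bound protein was picked up with Alexa488 anti-GST antibody and scanned at 488 nm.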

Row | Sequence | gcPBM binding intensity (ln)
1 | TTAATTAAAACGAATACACACATAAATATATAAAAG [CACACA_site1254] | 10.3 ± 0.24
2 | TTTTATTATTGAATACTAGTATATATAATATGAAGA [CACACA_negctrl_site910] | 10.1 ± 0.35
3 | AAAATATATATATATATATATATATGTATACTCCTA [XGTACX_negctrl_site312] | 10 ± 0.29
4 | TTATTTATAAATATTAATTTTTTTTTTTTTTTTTTT [XGTACX_negctrl_site105] | 10.3 ± 0.28
5 | TTTTATGTTTCAAAATGTACATTAAAATATACCATA [XGTACX_site1713] | 11 ± 0.48
6 | AAATTAAAAAGACATTCACACATTTTCATCTTAACA [CACACA_site5221] | 9.76 ± 0.28
7 | AAACATATATATATTATATATATATATATATATATG [GTGCAC_negctrl_site182] | 9.65 ± 0.014
8 | TAACATATAATATTCACACACATATATATATTATAT [CACACA_site988] | 9.825 ± 0.035
9 | TGTAGGTATTATTATACACACATAAAAAAAAAAAAA [CACACA_site3598] | 10 ± 0.45
10 | TAAAATATTATAAAATGTACAAAACATATAAATATA [XGTACX_site5315] | 10.6 ± 0.4
11 | TATTATTATCTTACCACACACAATGTACGAAAAGAT [CACACA_site352] | 11 ± 0.61
12 | AATATATATAAATATTGTACAAAAATATATATATAT [XGTACX_site2910] | 10.8 ± 0.57
13 | ATATATGATGTAAAAGCACACATATATATATATATA [CACACA_site9330] | 10.2 ± 0.47
14 | TCCCTCTTTTTATTCTCACACACGTTTATATATAAA [CACACA_site1644] | 10.3 ± 0.41
15 | AAACATCTTTACAACGTCCCTCCTTTTTTATGTACC [GTGCAC_negctrl_site528] | 10.3 ± 0.13
16 | TATATTTTCTATAGGTGTACTCCACATGCGGTGTTA [XGTACX_site7471] | 11.6 ± 0.95
17 | ATATTGATACATCCAATACACACTACATATAATGAT [CACACA_site1874] | 10.15 ± 0.042
18 | AAAAATATATAACAAAGTACATATATATTTAGTAAT [XGTACX_site8791] | 10.9 ± 0.7
19 | GGAAAAAAACTTATGAGTACACATAAATATAGCACA [XGTACX_site6686] | 11.5 ± 0.96
20 | AAAAAAATTAAATCAAGTACTCATTCTTAAATTATA [XGTACX_site1274] | 11.1 ± 0.6
21 | TATATAAACATATAAACATGCAATATATATATGTTA [TGCATGCA_site765] | 9.405 ± 0.078
22 | TTTTTAAATTATTTGAAAAAAAGAAAATTATAAACA [CACACA_negctrl_site1599] | 9.76 ± 0.057

Row | Sequence | gcPBM binding intensity (ln)
23 | AACAGAAGCACATACACACACTCAAAAAAAAAAAAA [CACACA_site5652] | 10.1 ± 0.43
24 | TAAATAAGGAAGGAAACACACATTAAAAAATAAATA [CACACA_site618] | 10.03 ± 0.057
25 | ATTTTATTCTAAAAAGGTACACATATTATTTTATGA [XGTACX_site7233] | 11.3 ± 0.91
26 | CATGTATAATATAATACACACTATATAATATACACC [CACACA_site5267] | 10.1 ± 0.19
27 | ATTAATATATATGGATGTACTTATGTATGTATGCAT [XGTACX_site2263] | 11.1 ± 0.52
28 | ATAATAATATATATTACACACGCATCGTTCATTTAT [CACACA_site8752] | 9.97 ± 0.042
29 | GGAAAAACCATTCGCACACACACATAATATATAATA [CACACA_site1424] | 10.1 ± 0.27
30 | CTTAAAAAAAAAAAATGTACACATAAAAAAAATACA [XGTACX_site6700] | 11.5 ± 0.94
31 | TTTAATTGATAATGAAGACAATTATATGCATCCAAA [TGCATGCA_negctrl_site138] | 9.965 ± 0.021
32 | TTATTGTCTTCTCATATACACACTTTTATGACTATC [CACACA_site3142] | 10.3 ± 0.27
33 | TCTTACTAATATCGCACACACATATGTAGACGGGAT [CACACA_site87] | 10.2 ± 0.16
34 | TATTTATATGGACACACACACATATAAATAAATAAA [CACACA_site6346] | 11 ± 0.83
35 | ATGGCCATAATATAGACACACATATATAAATATATA [CACACA_site2230] | 10.1 ± 0.35
36 | CGATATGTTCAATATTGTACTATTTATAATAATATG [XGTACX_site3051] | 11 ± 0.69
37 | TATTGACAAAATAGCTGTACAAATTAAAAGAAATAA [XGTACX_site4415] | 10.8 ± 0.49
38 | TTTTTATTACATAATTAAAAAAAATAATAAAATAAA [XGTACX_negctrl_site249] | 9.69 ± 0.16
39 | TTTTTTTTTTAATTCGCACACTGTCTTCATACAATT [CACACA_site1379] | 10.11 ± 0.078
40 | ATATATATATATTTATGTACTTAATAATTTATTCAC [XGTACX_site7301] | 11.3 ± 0.9
41 | TGCAGTCTGGAGAAAAGTACATAGTATCTGGTAACC [XGTACX_site2019] | 11.4 ± 0.87
42 | ATGGTACACAAATATACATGCAATAATAAAAAAAAA [TGCATGCA_site879] | 11 ± 1.1
43 | TAATATCTAAAAAATATATTTTTTATTTTTTATTAA [CACACA_negctrl_site510] | 9.495 ± 0.035
44 | ATATCATTAAAAGGATGTACATATGTGTATACAATA [XGTACX_site871] | 11.2 ± 0.61

Row | Sequence | gcPBM binding intensity (ln)
45 | TACATACATACATACACACACACATATATATACATA [CACACA_site853] | 10.5 ± 0.3
46 | TAAAAAATATAAACTGCACACACAAAAAAAAAAGAG [CACACA_site8379] | 10.9 ± 0.64
47 | AATTTAAAATAATATTGTACTTAGATATAAATATGA [XGTACX_site4198] | 11 ± 0.78
48 | ATGGGAATATAATTATGTACATATAAAAATTATAAA [XGTACX_site5336] | 11.2 ± 0.73
49 | TAATTATGCAGACACACACACACACGCAACTAAAAA [CACACA_site7253] | 10.3 ± 0.33
50 | CATTAATATATATATACATGCACGTTTTAAAAAAAA [TGCATGCA_site875] | 10.1 ± 0.23
51 | TAACAAAGGAAAGATATACACACGTATGCATGATAA [CACACA_site2520] | 10.09 ± 0.021
52 | TCATTTCACGGACACACACACACAATATATTTCCTT [CACACA_site6023] | 11.4 ± 0.75
53 | AAAAAATATTTTTACAGTACATATATATAAAATGTT [XGTACX_site3215] | 10.9 ± 0.58
54 | ATATTTTTCAAACATCGTACATTATGAGTTAAAATT [XGTACX_site584] | 10.8 ± 0.56
55 | ATACACAAAATTATTAAATCAATAAATATATGGTTT [CACACA_negctrl_site353] | 9.63 ± 0.085
56 | TGTATGAAATATATTACACACATATATAATATATAT [CACACA_site793] | 9.73 ± 0.028
57 | GTGTAAATAAGGATATATAACAATCAACAAAACATA [CACACA_negctrl_site1759] | 10.15 ± 0.092
58 | TTCAGTGTATACATATGTACATATATATATATATAT [XGTACX_site1621] | 11.3 ± 0.56
59 | ATTTTTATTTGTTACGCATGCATAAAAGTGCATACT [TGCATGCA_site547] | 10.3 ± 0.22
60 | TTGTAATATATGTATTGTACGCATATAACAATTATT [XGTACX_site3652] | 11.5 ± 1.1
61 | TTATAAATGAATAAATGTACAAAATATATATATATA [XGTACX_site8829] | 10.6 ± 0.27
62 | CATAACATAAAATAGGTGCACAAAAATTGTAATTGA | 10.4 ± 0.13
63 | CACACCCACCAACACACACACACACCCACCCATATA [CACACA_site366] | 10.2 ± 0.32
64 | TATGTCAGATGAAAGGGTACATAATATAATATATTT [XGTACX_site8062] | 11 ± 0.57
65 | TTTATAAAGAAACACACACACATGTGAACATAAAAA [CACACA_site1908] | 10.3 ± 0.12
66 | AAAATACATAAATGTTCACACATTAAAAAGCAGAAG [CACACA_site5346] | 9.91 ± 0.11

Row | Sequence | gcPBM binding intensity (ln)
67 | TATATTTCAGGGGGGAGTACAAATTTTTTTATATAA [XGTACX_site1600] | 11.8 ± 0.87
68 | TTTATGAAGTAAAAATATAAATTCACAAAGTTAAAA [CACACA_negctrl_site1476] | 9.79 ± 0.028
69 | AAGAACAGAACGTACACACACATATTTATATTTATA [CACACA_site7594] | 11.4 ± 1
70 | GGATTCAAAAAAAAAAATAAAAGTAAATAATAAATA [TGCATGCA_negctrl_site348] | 9.58
71 | TAAATATATTTATACACACACACCAAAGCAATAGAT [CACACA_site7393] | 10.5 ± 0.21
72 | TTCAATATACATATGTGTACTAAAATAAATAGAAAA [XGTACX_site5708] | 11.3 ± 0.83
73 | ATTACAACATTTTATACACACGTGATTATTAATTTT [CACACA_site5581] | 9.95 ± 0.21
74 | ATTTGTAATATTAAATGTACAGGTAAGAAATATCAG [XGTACX_site1562] | 11.1 ± 0.69
75 | TAAGGAAAAAAAATATGTACTTATAGTTCCTTCTTT [XGTACX_site2202] | 11.1 ± 0.59
76 | AACAAAATAAGAAAACGTACAAATGTTTCAAATTCT [XGTACX_site1544] | 11.2 ± 0.68
77 | CATTATGTACAAAAAGTGCAATATATATTAACACTG | 11 ± 0.63
78 | TTATATATATATATATATATATATATATATATAAAT [GTGCAC_negctrl_site126] | 9.62 ± 0.3
79 | TTAATAAATATCAATACACACACACTAATGTGAATA [CACACA_site9254] | 9.915 ± 0.078
80 | TTTTTGAGTGCACATACACACAGACATACATTTAAA [CACACA_site5813] | 10.7 ± 0.6
81 | TTTTCAAAGATATATACACACATGCATATTACGGTG [CACACA_site6505] | 10.1 ± 0.19
82 | ATAAAACGTACAATGGTGCATATAAATAATATATAT [GTGCAC_site9960] | 11.3 ± 1.1
83 | CATATATAGATATATACACACATATATAAATAAATA [CACACA_site6759] | 9.77 ± 0.042
84 | AAAATGTTATTGGAAAGTACAAAAAAAATTATATAA [XGTACX_site4074] | 10.9 ± 0.53
85 | TTAATATATATATATATATATATATTTTTATTTTTT [CACACA_negctrl_site763] | 9.35 ± 0.099
86 | TGTATTAACAAAAAGGTGCGGATATATATAAAAAAT [GTGCAC_site9473] | 10.18 ± 0.049
87 | TATGTATATTCTTTCAGTACACATAATGTTGTCATA [XGTACX_site8845] | 11.2 ± 0.67
88 | AAAAAAAAGAATTATTGTACAAAAGAACAATAAATA [XGTACX_site1368] | 10.7 ± 0.5
